Reference: article PMC4336329 (PLoS ONE, 2015)
Hit rate of the full screen: of about 310,000 compounds, about 14,000 (4.5%) showed an effect of 50% or more. Effects have a minus sign here. The list shows a part of the results.

molecular target: human ether-à-go-go-related gene (hERG) potassium channel (human, UniProt Q12809); experiment: primary screen, population patch clamp on CHO cells stably expressing hERG
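Note: peak tail current of the secondary pulse compared with the same well before compound.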

human ether-à-go-go-related gene (hERG) potassium channel, sequence (Q12809 whole entry, looked up): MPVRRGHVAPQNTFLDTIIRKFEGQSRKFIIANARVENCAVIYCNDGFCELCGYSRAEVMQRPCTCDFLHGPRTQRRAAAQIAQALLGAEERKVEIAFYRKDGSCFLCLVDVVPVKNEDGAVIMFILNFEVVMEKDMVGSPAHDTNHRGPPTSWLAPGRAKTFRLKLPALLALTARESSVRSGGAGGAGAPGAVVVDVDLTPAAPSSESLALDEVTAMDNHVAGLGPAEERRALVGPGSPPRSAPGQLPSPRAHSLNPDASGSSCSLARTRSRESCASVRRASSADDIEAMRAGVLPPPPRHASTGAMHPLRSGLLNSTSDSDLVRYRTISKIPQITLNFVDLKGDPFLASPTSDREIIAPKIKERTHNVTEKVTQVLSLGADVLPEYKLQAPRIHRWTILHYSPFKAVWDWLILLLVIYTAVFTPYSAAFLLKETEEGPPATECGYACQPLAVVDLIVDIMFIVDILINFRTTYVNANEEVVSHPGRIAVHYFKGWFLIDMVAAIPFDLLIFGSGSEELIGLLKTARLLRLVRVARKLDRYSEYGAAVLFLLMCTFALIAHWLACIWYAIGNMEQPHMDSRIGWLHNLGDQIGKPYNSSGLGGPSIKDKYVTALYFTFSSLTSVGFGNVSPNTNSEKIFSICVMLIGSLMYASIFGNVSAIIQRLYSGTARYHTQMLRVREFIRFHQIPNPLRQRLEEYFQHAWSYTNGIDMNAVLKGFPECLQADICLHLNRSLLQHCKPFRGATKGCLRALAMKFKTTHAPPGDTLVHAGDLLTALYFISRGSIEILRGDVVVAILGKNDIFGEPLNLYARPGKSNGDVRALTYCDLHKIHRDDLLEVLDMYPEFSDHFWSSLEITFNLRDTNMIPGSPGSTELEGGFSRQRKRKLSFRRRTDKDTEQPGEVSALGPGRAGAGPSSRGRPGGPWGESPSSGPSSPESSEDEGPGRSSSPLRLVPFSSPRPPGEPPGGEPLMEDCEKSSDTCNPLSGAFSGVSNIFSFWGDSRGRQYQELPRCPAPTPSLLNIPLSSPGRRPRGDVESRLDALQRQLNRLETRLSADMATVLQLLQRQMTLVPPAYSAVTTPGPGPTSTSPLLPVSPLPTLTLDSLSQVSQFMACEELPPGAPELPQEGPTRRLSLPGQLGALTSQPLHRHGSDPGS

Row | SMILES | hERG current change (%, negative = inhibition) at 10uM [%]
1 | COc1ccc(N(CC(=O)NCCSc2ccccc2)S(C)(=O)=O)cc1 | 8.91
2 | O=C(NCCc1c[nH]c2ccccc12)/C(=C\c1ccco1)NC(=O)c1ccco1 | -21.3
3 | Nc1ccn(C2CC(O)C(CO)O2)c(=O)n1 (stereo not drawn) | 5.3
4 | Cc1ccc(NC(=O)CN2CCc3ccccc3C2)cc1S(=O)(=O)N(C)C | -1.32
5 | Cc1ccc(S(=O)(=O)NC(C)C(c2cccs2)N2CCOCC2)cc1 (stereo not drawn) | -5.53
6 | O=S(=O)(c1cccc(C(F)(F)F)c1)N1CCCC1c1cccnc1 (stereo not drawn) | -12.7
7 | N#C/C(=C\c1ccc(-c2ccc(F)cc2)o1)C(=O)Nc1nc(-c2cccs2)cs1 | 9.36
8 | COC(=O)c1cc(C#N)c(OC)nc1C | 32.1
9 | COc1cccc(-c2nnc(SCc3ccccn3)n2C)c1 | -6.99
10 | CCNC(=O)CC1C(=O)N(c2ccc(C)cc2)C(=O)N1CCc1sccc1C (stereo not drawn) | -23.4
11 | CCCCNC(=O)c1cc([N+](=O)[O-])[nH]n1 | 19.1
12 | Cc1ccc(NC(=O)c2onc(C)c2Cl)cc1 | 1.73
13 | CN1CCN(S(=O)(=O)c2ccc(NC(=S)NC(=O)C3CCC3)cc2)CC1 | -17.7
14 | CCC(C)NC(=O)N[C@@H](Cc1ccccc1)C(=O)O (stereo partly drawn) | -1.98
15 | COc1ccccc1/C=C/C1=NC(=C\C=C/c2ccccc2)/C(=O)O1 | 3.98
16 | CCCCCCc1cc2cc(C(=O)NC)c(=N)oc2cc1O | -7.38
17 | Cc1cc(C)c[n+](C(C)C(=O)c2ccc(Cl)cc2)c1.[Br-] (stereo not drawn) | 4.97
18 | COc1ccc(NC(=O)C(CCCCNC(=O)OC(C)(C)C)NC(=O)OCc2ccccc2)cc1 (stereo not drawn) | 21.6
19 | O=C(COC(=O)c1cc(S(=O)(=O)N2CCOCC2)ccc1Cl)Nc1ccc2c(c1)OCO2 | -11

Row | SMILES | hERG current change (%, negative = inhibition) at 10uM [%]
20 | CCN1CCc2c(sc(NC(=O)c3ccc(C(=O)c4ccccc4)cc3)c2C(N)=O)C1.Cl | -55.4
21 | O=C(/C=C/c1ccco1)Nc1nnc(-c2ccco2)s1 | 37.5
22 | CCOC(=O)/C(C#N)=C/c1cn(CCC(=O)O)nc1-c1cccc(Cl)c1 | 25.3
23 | N#C/C(=C/Nc1ccccc1C(=O)O)C(N)=O | 3.85
24 | Clc1ccc(-c2nc3cnccn3c2Nc2ccc3c(c2)OCO3)cc1 | -18.4
25 | O=C(O)/C=C/C(=O)NCc1csc2ccccc12 | 10.3
26 | CCOc1cccc(C2NCc3ccccc3-n3cccc32)c1O.Cl (stereo not drawn) | -22.4
27 | O=C1N(Cc2cccc(Cl)c2)C[C@@H]2C[C@@H](c3cccn3-c3ccccn3)N3CCC[C@@]123 | -73.5
28 | CC(C)CCNc1ncnc2c1cnn2Cc1ccccc1Cl | -27.9
29 | CC1(c2ccccc2)CC2CC(c3ccccc3)N1O2 (stereo not drawn) | 9.74
30 | Cc1sc(-c2ccncc2)nc1OC(=O)c1ccc(Cl)cc1 | -15.7
31 | CSc1nc(NC(C)(C)C)nc(Oc2ccc(=O)[nH]n2)n1 | 4.68
32 | Cc1ccc(NC(=O)c2ccc3c(c2)C(=O)N(c2cc(C)ccc2C)C3=O)nc1 | 19
33 | Cc1ccc(NC2=CC(=O)CC(C)(C)C2)cc1Cl | 2.27
34 | CC(Cc1cnccn1)NCc1c(C(=O)N2CCCCCCC2)nc2ccc(Cl)cn12 (stereo not drawn) | -12.8
35 | Cc1nnsc1Sc1ccccc1C(=O)O | 8.3
36 | CCOc1ccc(CN2CCNC(=O)C2CC(=O)NC2CCOCC2)cc1 (stereo not drawn) | -44.7
37 | Cc1sc(NC(=O)c2ccco2)c(C(c2cccnc2)N2CCN(c3ccc(F)cc3)CC2)c1C (stereo not drawn) | 1.92
38 | CCC(=O)N/N=C(\C)CC(=O)Nc1ccc(F)cc1 | 0.39

Row | SMILES | hERG current change (%, negative = inhibition) at 10uM [%]
39 | COc1cc2c(cc1OC)C(c1cccs1)N(C(=O)c1cccc(S(=O)(=O)N(C)C)c1)CC2 (stereo not drawn) | -70.7
40 | O=C(NCCOCCOCCNC(=O)c1cccnc1)c1cccnc1 | 1.55
41 | CCCc1cc(=O)oc2cc(OCC(=O)N3CCc4ccccc43)ccc12 | 1.89
42 | O=C(O)C(=O)O.c1ccc(CCN(Cc2ccccc2)C2CCN(C3CCCC3)CC2)cc1 | -77
43 | CCOc1ccc(OCc2cccc(C(=O)N(CC)CC)c2)cc1 | -67.6
44 | COC(=O)/C(C#N)=C/c1c(N2CCCCCC2)nc2ccccn2c1=O | -10.8
45 | CC1=CC(=O)C=CC1(C)C(Cl)Cl (stereo not drawn) | -3.69
46 | COc1cccc(NC(=O)N2CCOCC2)c1 | -14.8
47 | COc1ccc(-n2nc(C(=O)Nc3ccc4c(c3)OCO4)c3ccccc3c2=O)c(OC)c1 | 13
48 | Cc1ccc(NC(=O)c2cccc(-n3cnnn3)c2)cc1Cl | -11.8
49 | CC(=O)Oc1ccc(S(=O)(=O)c2ccc(OC(C)=O)cc2)cc1 | 16.4
50 | COc1ccc2[nH]cc(C(=O)CN(C)CCc3ccc(OC)c(OC)c3)c2c1 | -70.3
51 | Cc1cnc(C(=O)OCC(=O)Nc2ccc(C)c(S(=O)(=O)N3CCCCC3)c2)cn1 | -8.9
52 | O=C(NCc1ccco1)c1ccc(Cn2cc([N+](=O)[O-])cn2)o1 | -10.3
53 | O=C(CSc1nnc(-c2ccccc2)n1Cc1ccccc1)N1CCOCC1 | -2.09
54 | O=C1NCCC/C1=N/Nc1ccc(F)cc1 | 3.33
55 | CCCn1c(-c2cccs2)nc2c1c(=O)[nH]c(=O)n2Cc1ccccc1 | 12.1
56 | Cc1nc(-c2cccc(NS(=O)(=O)c3ccc4ccccc4c3)c2)cs1 | 9.1
57 | Cc1ccn(CCC(=O)Nc2ccc3c(c2)OCO3)n1 | 17.6
